Our source for the relative growth values is the supplement of paper PMC9446081.

Structures are written as SMILES. Hit rate of the full screen: of about 39,000 compounds, about 220 (0.56%) showed activity. Some of the results follow.
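Further: static incubation at 37 °C against the wild-type strain, values averaged over two biological replicates.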

The test system of the test is Escherichia coli K-12 BW25113. Put plainly: relative growth (OD600 normalised to plate interquartile mean) (fraction); higher = less growth inhibition, active = 0.2 or less. Conditions: 50 µM; LB; incubation time: overnight (16-24 h).
In the case of `COc1ccc(NC(=O)Nc2ccc3c(c2)CC(=O)N([C@H](C)CO)C[C@H](C)[C@@H](CN(C)S(=O)(=O)c2cn(C)cn2)O3)cc1`, the relative growth is inactive: 1.01.

Take `CN1CCN(C(=O)C[C@@H]2CC[C@@H]3[C@H](COC[C@H](O)CN3C(=O)C3CCCC3)O2)CC1`: the relative growth was inactive: 1.

Take `COCC#Cc1ccc([C@@H]2[C@@H](CO)N3C(=O)CN(C(=O)CN4CCOCC4)C[C@H]23)cc1`: the relative growth is inactive: 1.02.

As to `C[C@@H]1CCCCO[C@@H](CN(C)C(=O)NC2CCCCC2)[C@H](C)CN([C@@H](C)CO)C(=O)c2cc(NS(=O)(=O)c3ccc(Cl)cc3)ccc2O1`, the relative growth was inactive: 1.02.

With `CN1C(=O)c2cc(NC(=O)C3CCOCC3)ccc2OC[C@@H]2O[C@@H](CC(=O)NCCc3ccncc3)CC[C@@H]21`, the relative growth is inactive: 0.978.

As for `Cc1ccc(S[C@]2(C(=O)O)CC(=O)N(Cc3ccccc3C(F)(F)F)[C@@H]2c2ccc(CO)cc2I)cc1`, the relative growth was inactive: 1.

For the compound `CCOC(=O)c1ccc(O)cc1`, the relative growth is inactive: 0.954.

Regarding `O=C(N[C@H]1CC[C@@H](CCNS(=O)(=O)c2ccc(F)cc2)O[C@H]1CO)C1CC1`, the relative growth was inactive: 1.01.

With `CO[C@@H]1CN(C)C(=O)c2ccc(NC(=O)c3ccccc3)cc2OC[C@@H](C)N(C(=O)CN(C)C)C[C@@H]1C`, the relative growth was inactive: 1.01.

As for `CCN(CC)C(=O)C(C#N)=Cc1cc(O)c(O)c([N+](=O)[O-])c1`, the relative growth was inactive: 1.1.

For the compound `CO[C@@H]1CN(C)C(=O)c2ccc(NC(=O)C3CCOCC3)cc2OC[C@@H](C)N(CC2CCOCC2)C[C@H]1C`, the relative growth was inactive: 1.02.

For the compound `COc1ccccc1CN1C(=O)c2ccccc2[C@](Cc2ccccc2I)(C(=O)NCCCN(C)C)[C@@H]1c1ccc(CO)cc1`, the relative growth is inactive: 1.

With `COc1ccc(cc1)CN1C[C@]2(CN(C2)C(=O)Cc2ccncc2)c2c([nH]c3cc(ccc23)OC)[C@H]1CO`, the relative growth was inactive: 1.

Take `COc1ccccc1CNC(=O)C[C@H]1C[C@H]2c3cc(NS(=O)(=O)c4ccc(F)cc4)ccc3O[C@H]2[C@H](CO)O1`: the relative growth is inactive: 0.986.

With `COCCOC(=O)N1C(=O)[C@@]2(c3cc(C#Cc4ccc(OC)cc4)ccc31)[C@H](C(=O)N1CCCCCCC1)[C@H]1C(=O)O[C@H](c3ccccc3)[C@H](c3ccccc3)N1[C@@H]2c1ccc(O)cc1`, the relative growth is inactive: 1.09.

On to `C[C@@H]1CCCCO[C@H](CN(C)S(=O)(=O)c2cn(C)cn2)[C@H](C)CN([C@@H](C)CO)C(=O)c2cc(NS(C)(=O)=O)ccc2O1`, for which the relative growth was inactive: 0.997.

As to `C[C@H](CO)N1C[C@H](C)[C@@H](CN(C)Cc2ccc(Cl)c(Cl)c2)OCCCC[C@H](C)Oc2ccc(NC(=O)c3ccncc3)cc2C1=O`, the relative growth is inactive: 1.

Turning to `CN1CCN(C(=O)C[C@H]2CC[C@@H]3[C@H](COC[C@@H](O)CN3C(=O)Nc3ccc4c(c3)OCO4)O2)CC1`, the relative growth is inactive: 0.988.

Take `COC(=O)C(CC#Cc1ccc2c(c1)[C@]1(C(=O)N2)[C@H](C(=O)N2CCc3cc(OC)c(OC)cc3C2)[C@H]2C(=O)O[C@H](c3ccccc3)[C@H](c3ccccc3)N2[C@@H]1c1ccc(OCCO)cc1)C(=O)OC`: the relative growth was inactive: 1.1.

`C[C@@H]1CN([C@@H](C)CO)C(=O)c2cc(NC(=O)Nc3ccc4c(c3)OCO4)ccc2O[C@@H](C)CCCCO[C@H]1CN(C)C(=O)Nc1ccccc1`: the relative growth was inactive: 1.02.

As for `CCN(CC)c1ccc(N2CC=C[C@@]34O[C@@H]5/C=C\CCCOC(=O)[C@@H]5[C@H]3C(=O)N(CCCCCCO)[C@@H]4C2=O)cc1`, the relative growth was inactive: 1.

Regarding `CO[C@H]1CN(C)C(=O)c2cc(NC(=O)NC3CCCCC3)ccc2OC[C@@H](C)N(CCc2ccccc2)C[C@@H]1C`, the relative growth is inactive: 1.03.

For the compound `COc1ccc(C2=C(N)C(=O)NC2=O)cc1OC`, the relative growth is inactive: 0.93.

In the case of `C[C@@H]1CCCCO[C@H](CN(C)C(=O)Nc2ccc(C(F)(F)F)cc2)[C@@H](C)CN([C@H](C)CO)C(=O)c2cc(NC(=O)Nc3ccccc3)ccc2O1`, the relative growth was inactive: 0.999.

With `Cc1ccc(C(=O)c2ccc(CC(=O)[O-])n2C)cc1.[Na+]`, the relative growth was inactive: 1.07.

Consider `CC(C)NC(=O)Nc1ccc2c(c1)C(=O)N([C@H](C)CO)C[C@H](C)[C@H](CN(C)Cc1ccc(Oc3ccccc3)cc1)O2`, for which the relative growth was inactive: 1.

Take `O=C1c2ccc3c4c(ccc(c24)C(=O)N1CCCCO)C(=O)N(CCCCO)C3=O`: the relative growth is inactive: 0.977.

Consider `O=C(C[C@@H]1CC[C@H]2[C@@H](COC[C@H](O)CN2C(=O)Nc2ccc(Cl)c(Cl)c2)O1)NCc1ccc(Cl)c(Cl)c1`, for which the relative growth was inactive: 0.966.

As to `C[C@@H]1CN([C@@H](C)CO)C(=O)Cc2cc(NS(=O)(=O)c3cn(C)cn3)ccc2O[C@H]1CN(C)C(=O)NC1CCCCC1`, the relative growth is inactive: 0.971.

In the case of `C[C@@H]1CN([C@@H](C)CO)C(=O)c2cc(NC(=O)Cc3ccccc3)ccc2O[C@@H](C)CCCCO[C@@H]1CN(C)C(=O)CCC(F)(F)F`, the relative growth was inactive: 1.02.

Turning to `COc1ccc(S(=O)(=O)Nc2cccc3c2O[C@H](CN(C)S(=O)(=O)c2cn(C)cn2)[C@H](C)CN([C@H](C)CO)C3=O)cc1`, the relative growth is inactive: 1.01.

In the case of `C[C@@H]1CCCCO[C@@H](CN(C)S(=O)(=O)c2cccs2)[C@@H](C)CN([C@H](C)CO)C(=O)c2cc(NS(=O)(=O)c3cn(C)cn3)ccc2O1`, the relative growth was inactive: 0.997.

For `COc1ccc(NC(=O)Nc2ccc3c(c2)C(=O)N([C@@H](C)CO)C[C@H](C)[C@H](CN(C)CC2CCCCC2)O3)cc1`, the relative growth was inactive: 0.992.

For the compound `CN(C)C(=O)C[C@@H]1C=C[C@H](NC(=O)C2CCOCC2)[C@H](CO)O1`, the relative growth is inactive: 0.99.

With `C[C@@H]1CN([C@@H](C)CO)C(=O)c2cc(NS(=O)(=O)c3cccs3)ccc2O[C@@H]1CN(C)Cc1ccncc1`, the relative growth was inactive: 0.993.

In the case of `C[C@@H]1CN([C@@H](C)CO)C(=O)c2cc(NS(=O)(=O)c3cn(C)cn3)ccc2O[C@@H](C)CCCCO[C@@H]1CN(C)C(=O)c1ccncc1`, the relative growth was inactive: 0.975.

Regarding `O=C(C[C@H]1C[C@H]2c3cc(NS(=O)(=O)c4ccc(F)cc4)ccc3O[C@H]2[C@@H](CO)O1)NCc1cccc(F)c1`, the relative growth was inactive: 0.997.

On to `C[C@@H]1CCCCO[C@@H](CN(C)CC2CCCCC2)[C@H](C)CN([C@H](C)CO)C(=O)c2cc(NC(=O)Nc3ccc4c(c3)OCO4)ccc2O1`, for which the relative growth was inactive: 0.977.

For `C=C[C@]1(C)C[C@@H](OC(=O)CS[C@@H]2C[C@H]3CC[C@@H](C2)N3C)[C@]2(C)[C@H](C)CC[C@]3(CCC(=O)[C@H]32)[C@@H](C)[C@@H]1O`, the relative growth is inactive: 0.269.

Consider `O=C(O)[C@H]1C[C@H]2C(=O)NCC(=O)N2[C@H]1c1ccc(O)cc1`, for which the relative growth was inactive: 0.997.

Take `CN(C)CC(=O)N[C@H]1CC[C@@H](CCn2cc(CN(C)C)nn2)O[C@H]1CO`: the relative growth is inactive: 0.985.

Take `C[C@H]1CCCCO[C@H](CN(C)C(=O)NC2CCCCC2)[C@@H](C)CN([C@@H](C)CO)C(=O)c2cc(NC(=O)Nc3ccc(C(F)(F)F)cc3)ccc2O1`: the relative growth was inactive: 1.02.

On to `O=C(O)C1=CC(O)C(O)C(O)C1` (stereo not given), for which the relative growth is inactive: 1.03.

With `COc1ccc(NC(=O)N(C)C[C@H]2OCCCC[C@@H](C)Oc3ccc(NC(=O)CCC(F)(F)F)cc3C(=O)N([C@H](C)CO)C[C@H]2C)cc1`, the relative growth was inactive: 0.971.

As to `COc1ccc(S(=O)(=O)Nc2ccc3c(c2)C(=O)N([C@H](C)CO)C[C@@H](C)[C@@H](CN(C)Cc2ccc(C(F)(F)F)cc2)OCCCC[C@H](C)O3)cc1`, the relative growth is inactive: 1.02.

As for `CN(C)CC(=O)N[C@H]1C=C[C@@H](CC(=O)O)O[C@@H]1CO`, the relative growth was inactive: 1.02.

For `C[C@@H]1CCCCO[C@@H](CN(C)CC2CCCCC2)[C@H](C)CN([C@@H](C)CO)C(=O)c2cc(NC(=O)C3CCCCC3)ccc2O1`, the relative growth was inactive: 0.987.

Turning to `CC(C)C(=O)NS(=O)(=O)c1ccc(N)cc1`, the relative growth was inactive: 1.

Consider `C[C@@H]1CN([C@H](C)CO)S(=O)(=O)c2ccc(C#Cc3cccnc3)cc2O[C@@H]1CN(C)C(=O)CN(C)C`, for which the relative growth is inactive: 1.03.

For the compound `COC(=O)C(CC#Cc1ccc2c(c1)[C@]1(C(=O)N2)[C@H](c2ccccc2OCCO)N2[C@H](c3ccccc3)[C@H](c3ccccc3)OC(=O)[C@H]2[C@@H]1C(=O)Nc1nc2ccccc2s1)C(=O)OC`, the relative growth is inactive: 1.02.

Turning to `CCCOc1cc(N)ccc1C(=O)OCCN(CC)CC.Cl`, the relative growth was inactive: 1.

For the compound `C[C@H]1CN([C@@H](C)CO)C(=O)c2cc(NS(=O)(=O)c3ccc(F)cc3)ccc2O[C@H]1CN(C)Cc1ccc(Oc2ccccc2)cc1`, the relative growth is inactive: 0.99.

For the compound `C[C@H](CO)N1C[C@H](C)[C@H](CN(C)S(=O)(=O)c2cccc(F)c2)Oc2ncc(-c3cccc(C(=O)N(C)C)c3)cc2C1=O`, the relative growth is inactive: 1.

On to `C[C@@H]1CCCCO[C@H](CN(C)C(=O)NC2CCCCC2)[C@H](C)CN([C@@H](C)CO)C(=O)c2cc(NS(=O)(=O)c3cccs3)ccc2O1`, for which the relative growth is inactive: 0.986.

With `COc1ccc(CC(=O)c2ccc(O)cc2O)cc1`, the relative growth is inactive: 0.907.

Consider `COc1ccc(-c2cc(=O)c3c(O)cc(OC)c(OC)c3o2)c(OC)c1`, for which the relative growth was inactive: 0.987.

Consider `COc1cccc(S(=O)(=O)N[C@@H]2CC[C@H](CC(=O)NC3CCC3)O[C@@H]2CO)c1`, for which the relative growth was inactive: 0.986.

Regarding `Cc1noc(C)c1NC(=O)N(C)C[C@H]1OCCCC[C@@H](C)Oc2ccc(NC(=O)c3ccccc3)cc2C(=O)N([C@H](C)CO)C[C@@H]1C`, the relative growth is inactive: 0.985.

As for `C[C@H](CO)N1C[C@H](C)[C@@H](CN(C)Cc2ccc(-c3ccccc3)cc2)Oc2c(NC(=O)NC3CCCCC3)cccc2C1=O`, the relative growth was inactive: 0.893.

For the compound `COc1ccc(NC(=O)N(C)C[C@H]2OCCCC[C@H](C)Oc3ccc(NC(=O)C4CCCCC4)cc3C(=O)N([C@@H](C)CO)C[C@H]2C)cc1`, the relative growth was inactive: 1.01.
